Out of some 280,000 compounds screened, about 100 (0.036%) were called active. The inconclusive results got no clear call from the source; some entries with a clear call stand among them for comparison. Calls come from the whole dose curve; as a rule, active = well fitted inhibition curve with a large enough effect in the signal ratio, with a control signal flat (not every such curve was filed as active); inconclusive = small, poorly fitted or top-dose-only effect, or effect the other way, or a change in a side signal; inactive = no such curve, though single readings can be large or run the other way; the % refers to the signal ratio. Potencies of inconclusive entries are doubtful fits and often do not repeat. “Side channel” marks fits to a control or component signal instead of the main read-out.
The compounds below were run against Muscleblind-like protein 1 (Homo sapiens) (UniProt Q9NR56) (assay: qHTS Assay for Inhibitors of MBNL1-poly(CUG) RNA binding). Conditions: TR-FRET MBNL1-His/biotin-(CUG)12 binding, 665/545 ratio; series mostly up to 57.5 µM.
How it was run: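 Compounds (final 92 nM to 58 uM) are added to His-tagged MBNL1 and biotin-(CUG)12, then terbium anti-His antibody and streptavidin-XL665 (5 nM final). After 60 min at room temperature, the 665/545 nm ratio is read.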
Potency is the fitted concentration of half-maximal effect; tags give direction and shape of the fitted curve or compound fluorescence and quenching.

Sequence of UniProt Q9NR56 (Q9NR56 whole entry, looked up): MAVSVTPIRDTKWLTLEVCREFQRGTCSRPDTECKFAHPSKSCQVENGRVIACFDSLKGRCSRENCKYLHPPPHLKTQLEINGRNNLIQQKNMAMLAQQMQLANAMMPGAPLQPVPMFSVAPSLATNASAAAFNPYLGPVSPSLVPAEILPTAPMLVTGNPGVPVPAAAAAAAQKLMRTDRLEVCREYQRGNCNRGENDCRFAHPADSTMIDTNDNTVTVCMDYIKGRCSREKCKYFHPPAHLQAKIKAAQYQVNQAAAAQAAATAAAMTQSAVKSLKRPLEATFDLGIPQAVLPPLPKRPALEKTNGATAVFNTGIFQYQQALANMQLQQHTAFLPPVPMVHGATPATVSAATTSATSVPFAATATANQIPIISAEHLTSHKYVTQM

Row | Structure (SMILES) | Potency
1 | Cc1ccc(Sc2ccc(CO)cc2[N+](=O)[O-])cc1 | inconclusive: 31.6 µM [quencher, side channel, partial curve]
2 | O=C1C(C=NCc2ccco2)=C(O)c2ccccc21 | inconclusive: 17.8 µM [quencher, side channel, single point]
3 | FC(F)(F)c1cccc(NC(=S)NCCc2ccccn2)c1 | inactive
4 | COC(=O)C(NC(=O)c1ccc(OC)cc1)(Nc1ncc(S(=O)(=O)c2ccc([N+](=O)[O-])cc2)s1)C(F)(F)F (stereo unspecified) | inconclusive: 15.8 µM [quencher, side channel, partial curve]
5 | CCSc1nnc2c(n1)OC(c1ccc(C(=O)O)cc1)N(C(C)=O)c1ccccc1-2 (stereo unspecified) | inconclusive: 25.1 µM [quencher, side channel, partial curve]
6 | c1ccc(-c2cnnc(SCc3cn4cccnc4n3)n2)cc1 | inconclusive: 3.55 µM [quencher, side channel, partial curve]
7 | CN1c2ccc(Cl)cc2C(=O)NC1c1ccc([N+](=O)[O-])s1 (stereo unspecified) | inconclusive: 14.1 µM [quencher, side channel, partial curve]
8 | CCOC(=O)c1sc(NC(=O)c2ccccc2OC)nc1C | inactive
9 | COc1ccc(OC)c(C(=O)NC(CC(N)=O)c2ccc(NCCN3CCOCC3)c([N+](=O)[O-])c2)c1 (stereo unspecified) | inconclusive: 22.4 µM [quencher, side channel, partial curve]
10 | CS(=O)(=O)NCCNc1ccc(C(F)(F)F)cc1[N+](=O)[O-] | inconclusive: 10 µM [quencher, side channel, partial curve]
11 | CCN(CC)CCCn1c(=S)[nH]c2ccc(Cl)cc2c1=O | inconclusive: 0.126 µM [quencher, side channel, full curve, poor fit]
12 | CCCCC(=O)Nc1c(O)c2ccccc2[nH]c1=O | inactive
13 | COC(C(=O)NNS(=O)(=O)c1ccc([N+](=O)[O-])cc1)c1ccccc1 (stereo unspecified) | inconclusive: 25.1 µM [quencher, side channel, partial curve]
14 | N#Cc1c(N)n(-c2cccc(O)c2)c2nc3ccccc3nc12 | inconclusive: 11.2 µM [quencher, side channel, partial curve]
15 | CC(=O)N1CCC(=NNc2ccc(S(N)(=O)=O)cc2[N+](=O)[O-])CC1 | inconclusive: 10 µM [quencher, side channel, partial curve]
16 | CNc1ccc(OC)cc1-n1cnc(-c2ccc([N+](=O)[O-])cc2)c1 | inconclusive: 1.58 µM [quencher, side channel, full curve, poor fit]
17 | COc1ccc(C(C(=O)NCc2ccccc2)N(Cc2cccnc2)C(=O)c2snc(C(N)=O)c2N)cc1OC (stereo unspecified) | inconclusive: 10 µM [quencher, side channel, partial curve]
18 | O=C1C2C3C=CC(C3=C3CCCCC3)C2C(=O)N1c1ccccc1 (stereo unspecified) | inactive
19 | Cc1cccc(-c2nc3ccc(C(=O)NCCN4CCN(C)CC4)cc3nc2-c2cccc(C)c2)c1 | inconclusive: 22.4 µM [quencher, side channel, partial curve]
20 | N#C/C(=C/c1ccccc1)c1nn(CCO)c(N)c1C#N | inconclusive: 22.4 µM [quencher, side channel, partial curve]
21 | COC(=O)c1ccc2c(=O)sc(N3CCC(C(N)=O)CC3)nc2c1 | inconclusive: 0.891 µM [quencher, side channel, full curve, poor fit]

Row | Structure (SMILES) | Potency
22 | CN(C)c1ccc(/C=C(/C#N)C(=O)NCc2ccccc2)o1 | inconclusive: 0.631 µM [quencher, side channel, full curve]
23 | COc1ccc(NC(=O)CC2Nc3cccc4cccc(c34)NC2=O)cc1 (stereo unspecified) | inconclusive: 14.1 µM [quencher, side channel, partial curve]
24 | CCOC(=O)N1CCN(S(=O)(=O)c2ccc(C(=O)Nc3nc4ccccc4s3)cc2)CC1 | inconclusive: 25.1 µM [fluorescent, side channel, partial curve]
25 | CCOc1ccc(NC(=S)Nc2ccc(C)c([N+](=O)[O-])c2)cc1 | inconclusive: 28.2 µM [quencher, side channel, single point]
26 | O=C(CN1CCCCCCC1)N/N=C/c1ccc([N+](=O)[O-])o1 | inconclusive: 12.6 µM [quencher, side channel, partial curve]
27 | CCCn1c(Oc2ccccc2)nc2c1c(=O)n(C)c(=O)n2C | inactive
28 | COc1ccc(C(=O)COc2ccccc2N2C(=O)C3C4C=CC(C4)C3C2=O)cc1 (stereo unspecified) | inactive
29 | Cc1ccccc1-n1sc2cc(F)ccc2c1=O | inactive
30 | O=C(O)c1ccc2c(c1)C(=O)N(c1ccc(Cl)cn1)C2=O | inconclusive: 3.55 µM [quencher, side channel, partial curve, poor fit]
31 | N/C(=N\OC(=O)c1ccc(Cl)cc1Cl)c1ccccc1 | inactive
32 | CCSC1(SCC)N=C(N)C2(C#N)C(c3ccccc3)NC3=C(CCC3)C12C#N (stereo unspecified) | inactive
33 | CSc1nncc(/C(C)=N/O)n1 | inconclusive: 39.8 µM [quencher, side channel, single point]
34 | Cc1c(C(=O)Nc2ccc(S(=O)(=O)Nc3ncccn3)cc2)oc2ccc(Cl)cc12 | inactive
35 | N/C(=N\OC(=O)c1ccc(=O)n(Cc2ccccc2)c1)c1ccccn1 | inactive
36 | O=C(Nc1nc(-c2ccccc2)cs1)C1CCCN(S(=O)(=O)c2cccc([N+](=O)[O-])c2)C1 (stereo unspecified) | inactive
37 | COc1cc(/C=N/NC(N)=S)ccc1OC(=O)c1ccc(C)cc1 | inactive
38 | COc1ccc(-n2c(C)ccc2C)c([N+](=O)[O-])c1 | inconclusive: 11.2 µM [quencher, side channel, partial curve]
39 | CC(=O)CC(C)(C)Nc1nc2ccc([N+](=O)[O-])cc2o1 | inconclusive: 17.8 µM [quencher, side channel, partial curve]
40 | COCCNC(=S)NNc1ccccc1[N+](=O)[O-] | inconclusive: 28.2 µM [quencher, side channel, partial curve]
41 | CCCNC(=S)N1CCC(C(=O)c2ccc(OC)cc2)CC1 | inconclusive: 2.24 µM [fluorescent, side channel, partial curve]
42 | O=C1c2ccccc2-c2onc3c(N4CCN(CCO)CC4)cc(N4CCN(C(=O)c5ccco5)CC4)c1c23 | inconclusive: 12.6 µM [quencher, side channel, partial curve]

Row | Structure (SMILES) | Potency
43 | COc1cc(C(=O)N(Cc2cccnc2)Cc2cc3cc4c(cc3[nH]c2=O)OCCO4)cc(OC)c1OC | inactive
44 | Cc1ccc2[nH]c(O)c(N=NC(=O)C(C)n3cnc4ccccc4c3=O)c2c1 (stereo unspecified) | inconclusive: 20 µM [quencher, side channel, single point]
45 | COC(=O)c1ccc(C2C(C#N)=C(N)Oc3cc(O)ccc32)cc1 (stereo unspecified) | inconclusive: 14.1 µM [quencher, side channel, partial curve]
46 | Cc1cc(C(C)(C)C)nc2[nH]n(-c3ccccc3)c(=O)c12 | inconclusive: 25.1 µM [quencher, side channel, single point]
47 | O=C(CNC(=O)c1ccncc1)N/N=C/c1ccccc1[N+](=O)[O-] | inconclusive: 15.8 µM [quencher, partial curve]
48 | COc1ccccc1Nc1nnc(SCc2cc(=O)n3cc(C)ccc3n2)s1 | inconclusive: 0.141 µM [quencher, side channel, full curve, poor fit]
49 | NC(=O)c1ccc[n+](CC(=O)c2cccc([N+](=O)[O-])c2)c1 | inconclusive: 15.8 µM [quencher, partial curve]
50 | C#CCSc1nc(-c2ccccc2)cc(C(F)(F)F)c1C#N | inconclusive: 8.91 µM [quencher, side channel, single point]
51 | CCCCn1c(O)c(N=NC(=O)c2ccco2)c2ccccc21 | inconclusive: 11.2 µM [quencher, side channel, partial curve]
52 | CCCN1C2CCCC1CC(NC(=S)Nc1cc(C)ccc1C)C2 (stereo unspecified) | inconclusive: 100 µM [inhibitor, single point]
53 | O=C(CNC(=O)c1ccco1)N=Nc1c(O)n(CCc2ccccc2)c2ccccc12 | inconclusive: 12.6 µM [quencher, side channel, partial curve]
54 | CCCC(=O)Nc1cccc(Oc2nc(C)cc(C)c2C#N)c1 | inconclusive: 79.4 µM [inhibitor, single point]
55 | CC1CCCN(Cc2cnc(Cl)s2)C1 (stereo unspecified) | inactive
56 | NS(=O)(=O)c1cc(C(=O)OCC(=O)c2ccc3c(c2)OCCO3)ccc1Cl | inconclusive: 22.4 µM [fluorescent, side channel, single point]
57 | CCN1/C(=C2\OC(=S)N(C)C2=O)C=Cc2ccccc21 | inactive
58 | CN(C)S(=O)(=O)c1cc(NC(=O)CN2CCCc3ccccc32)ccc1Cl | inconclusive: 15.8 µM [quencher, side channel, single point]
59 | COc1ccccc1C(=O)N1CCC(N2CCN(c3ccccc3)CC2)CC1 | inactive
60 | C#CCOCCOCCOCCNc1nc(N2CCN(C(=O)C(Cc3cc4ccccc4[nH]3)n3cc(C(N)C(C)CC)nn3)CC2)nc(N2CCN(C(=O)C(Cc3cc4ccccc4[nH]3)n3cc(C(N)C(C)CC)nn3)CC2)n1 (stereo unspecified) | inconclusive: 79.4 µM [inhibitor, single point]
61 | CCc1c(C)c(C#N)c2nc3ccccc3n2c1NCc1ccco1 | inconclusive: 28.2 µM [quencher, side channel, single point]

Source: PubChem BioAssay AID2675 (National Center for Advancing Translational Sciences (NCATS), 2010)
